From PMC4336329 (PLoS ONE, 2015)
In all, about 310,000 compounds went through this assay and about 2,200 (0.71%) showed an effect of 50% or more. The effect is printed as a negative number. Some of the results follow.

Molecular target: human ether-à-go-go-related gene (hERG) potassium channel (human, UniProt Q12809)
Test: primary screen, population patch clamp on CHO cells stably expressing hERG

human ether-à-go-go-related gene (hERG) potassium channel, sequence (Q12809 whole entry, looked up): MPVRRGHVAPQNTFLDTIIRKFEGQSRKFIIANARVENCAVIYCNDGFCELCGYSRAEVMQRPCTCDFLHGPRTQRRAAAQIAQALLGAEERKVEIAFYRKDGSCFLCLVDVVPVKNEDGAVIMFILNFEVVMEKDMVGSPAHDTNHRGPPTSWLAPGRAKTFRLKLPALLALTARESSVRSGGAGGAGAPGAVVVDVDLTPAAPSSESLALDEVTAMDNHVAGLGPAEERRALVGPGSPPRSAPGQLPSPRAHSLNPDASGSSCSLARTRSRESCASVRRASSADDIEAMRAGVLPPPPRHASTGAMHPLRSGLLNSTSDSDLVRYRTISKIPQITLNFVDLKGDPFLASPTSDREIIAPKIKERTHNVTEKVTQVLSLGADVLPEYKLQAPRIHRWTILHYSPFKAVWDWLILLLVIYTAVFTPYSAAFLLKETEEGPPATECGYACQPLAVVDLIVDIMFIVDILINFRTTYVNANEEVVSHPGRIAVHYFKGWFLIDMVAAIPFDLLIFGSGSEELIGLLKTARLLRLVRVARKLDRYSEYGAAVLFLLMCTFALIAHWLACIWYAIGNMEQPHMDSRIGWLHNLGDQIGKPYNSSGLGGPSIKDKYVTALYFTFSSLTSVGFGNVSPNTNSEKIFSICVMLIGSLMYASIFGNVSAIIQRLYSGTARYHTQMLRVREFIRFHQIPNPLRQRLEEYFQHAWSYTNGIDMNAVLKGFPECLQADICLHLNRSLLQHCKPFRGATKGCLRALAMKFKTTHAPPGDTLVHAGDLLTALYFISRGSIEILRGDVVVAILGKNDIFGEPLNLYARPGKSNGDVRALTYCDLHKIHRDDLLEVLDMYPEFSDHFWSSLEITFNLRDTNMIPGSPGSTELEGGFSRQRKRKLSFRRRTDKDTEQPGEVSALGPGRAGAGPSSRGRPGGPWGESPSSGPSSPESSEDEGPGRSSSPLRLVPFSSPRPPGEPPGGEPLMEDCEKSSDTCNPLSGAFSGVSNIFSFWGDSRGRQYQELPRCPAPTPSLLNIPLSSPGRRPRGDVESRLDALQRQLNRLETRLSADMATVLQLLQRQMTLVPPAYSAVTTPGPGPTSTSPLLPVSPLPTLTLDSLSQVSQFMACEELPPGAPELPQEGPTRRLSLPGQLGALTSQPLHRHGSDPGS

SMILES	hERG current change (%, negative = inhibition) at 1uM [%]
Cl.N=c1sccn1CC(=O)Nc1ccc(Cl)cc1[N+](=O)[O-]	4.9
O=C(C1=C[C@@H](c2coc3ccccc3c2=O)C[C@@H](OCCCCO)O1)N1CCOCC1	15.5
CC1CCN(C(=S)c2ccc3c(c2)OCO3)CC1	4.69
CN1CCN(C(=O)COc2ccc(S(=O)(=O)N(C)Cc3ccccc3)cc2)CC1	9.21
O=C1c2ccccc2CN1CCSC(=S)N1CCSCC1	8.94
Cc1c(NC(=O)c2nn(C)c(=O)c3ccccc23)c(=O)n(-c2ccccc2)n1C	13.3
Cc1ccc(-c2ccc(S(=O)(=O)Nc3cccnc3)cc2)cc1	8.57
COc1ccc(NC(=O)CNC(=O)c2nn(-c3ccc(OC)c(OC)c3)c(=O)c3ccccc23)c(OC)c1	18.1
CCC(C)Sc1ccc([C@@H]2[C@@H]3C(=O)N(C)C(=O)[C@@H]3[C@]3(C(=O)OC)CCCCN23)cc1.O=C(O)C(F)(F)F (stereo partly shown)	15.5
COc1ccc(COc2cc(-c3cccc(OC)c3)nc3ccc(N)cc23)cc1	10
CC1(C)Nc2ccccc2N(CC(=O)N2CCCCC2)C1=O	10.8
O=C(COC(=O)c1cc([N+](=O)[O-])ccc1N1CCOCC1)c1ccccc1	-8.48
COc1ccc(CSCC(=O)N/N=C/c2ccccc2OCc2ccccc2)cc1	12.8
COc1ccc2c(Cl)c(C(=O)NCCCn3ccnc3)sc2c1Cl	11.4
CCCCCc1cc(=O)oc2c(C(CCN3CCCC(C)C3)c3ccc4c(c3)OCO4)c(OC)cc(OC)c12 (stereo not shown)	9.85
O=C1C(=O)N(CC2CCCO2)C(c2ccco2)/C1=C(/O)c1ccc(F)cc1 (stereo not shown)	-16.1
COc1ccc(CCN2CCCC(CN(C)Cc3cc(OC)ccc3OC)C2)cc1 (stereo not shown)	-10.5
COc1ccc2cc3cc(C(=O)NCCC(C)C)oc3nc2c1	7.3
CCCO/N=C1/C(=O)N(c2ccccc2)c2ccccc21	-0.309
CCc1ccc(OCC(=O)NNC(=S)NC(=O)C2CCCCC2)c(Br)c1	7.86
CCC(=O)N1CCN(CCN=Cc2c(O)n(C)c(=O)n(C)c2=O)CC1	16.1
CCOc1ccccc1OCC(=O)Nc1nnc(C)s1	11.5

SMILES	hERG current change (%, negative = inhibition) at 1uM [%]
COc1ccc(CCNC(=O)CCc2cc(OC)c(OC)c(OC)c2)cc1	14.4
CCCCCc1ccc(OCCCC[n+]2cccc(C)c2)c(CCCCC)c1.[Cl-]	-16.2
CC1CCCN(CCCNC(=O)CN2C(=O)CSc3ccc(S(=O)(=O)N4CCOCC4)cc32)C1 (stereo not shown)	14.8
CCOC(=O)C1CCN(C(C)C(=O)c2c[nH]c3ccccc23)CC1 (stereo not shown)	-1.89
CC(=O)Nn1cnc2c(c1=O)C1(CCCCC1)Cc1ccccc1-2	9.15
O=C(N/C=C/c1ccccc1)Nc1ccc(Cl)cc1	12.8
COCCN(C(=O)Cc1cccs1)C(C(=O)NC1CCCC1)c1ccc(OC)c(OC)c1 (stereo not shown)	10.1
COC(=O)CCC(=O)OC1(C)C(=O)C=C2C=C(C3CC3)N(CC3CC3)C=C2C1=O (stereo not shown)	13.7
Cc1nnc(SC(C)C(=O)N2CCc3ccccc32)s1 (stereo not shown)	8.85
O=C(O)C1Cc2ccccc2CN1C(=O)c1ccco1 (stereo not shown)	12.7
CCOC(=O)c1c(C)[nH]c(C(=O)COC(=O)c2[nH]c(C)c(C(C)=O)c2C)c1C	15.5
Cc1cc2c(=O)n(C)c(SCC(=O)Nc3ccccc3C)nc2s1	1.7
Fc1ccc(Oc2cc(N3CCOCC3)nc(-c3ccccc3)n2)c(F)c1	12.8
Cc1nnc(NC(=O)CCC(=O)NC2CCCCCCC2)s1	10.9
CC1(C)C(=O)Nc2ccccc2N1C(=O)c1ccc([N+](=O)[O-])cc1	-2.42
COc1cccc(CNC(=O)C2CCCN(C(=O)c3ccc(Cl)cc3)C2)c1 (stereo not shown)	2.65
C#CC[N+]1(CC#Cc2ccccc2)CCCCC1.[I-]	12.5
O=C(CN1CCN(C(=O)c2ccco2)CC1)Nc1cccc([N+](=O)[O-])c1	0.981
N#Cc1nc(-c2cccc3ccccc23)oc1NCCN1CCCCC1	-3.24
CCOc1ccc(N2C(=O)CC(SCCN)C2=O)cc1.Cl (stereo not shown)	7.84
O=C(CSc1nnc(SCc2ccc(Cl)cc2)s1)N/N=C/c1c(Cl)cccc1Cl	-5.83
CC(C)C(NC(=O)c1cccs1)c1nnc(SCC(=O)Nc2nccs2)n1C (stereo not shown)	4.17

SMILES	hERG current change (%, negative = inhibition) at 1uM [%]
COc1cccc2cc(C(=O)Nc3ccc(F)cc3)c(=Nc3ccc(C(=O)O)cc3)oc12	9.67
O=c1nc2n(c3ncccc13)CCC2	16.1
CN(Cc1ccccc1)c1ccc(C(=O)O)cc1[N+](=O)[O-]	13.1
COc1cccc(-c2nc(C=O)cs2)c1	7.54
Cc1c(NS(=O)(=O)c2cc([N+](=O)[O-])ccc2Cl)c(=O)n(-c2ccccc2)n1C	9.07
O=[N+]([O-])c1ccc(NCCNCCOc2nonc2-c2ccccc2)c([N+](=O)[O-])c1	3.61
CCCCCSc1nnc(-c2ccccc2N)c(=O)[nH]1	-4.32
Cc1ccc(C(C)C)c(OCC(=O)Nc2cccc(S(=O)(=O)NC3=NCCCCC3)c2)c1	7.13
O=C(CSc1ccc(C(F)(F)F)cc1[N+](=O)[O-])Nc1ccc2ccccc2c1	5.53
Cc1ccc(NC(=O)c2ccccc2N2C(=O)C3C4C=CC(C5CC45)C3C2=O)cc1C (stereo not shown)	6.27
CCN(CC(=O)Nc1c(F)cccc1F)C(=O)/C=C/c1ccc2c(c1)OCO2	3.1
Cc1c(C(=O)Nc2cccnc2)oc2ccc(Br)cc12	6.76
Cc1nn(-c2ccccc2)c(Cl)c1C1C(C#N)=C(N)Oc2n[nH]c(C)c21 (stereo not shown)	-0.951
O=[N+]([O-])c1c(C(Cl)Cl)nn(-c2ccccc2)c1N1CCCC1	14.6
CC(C)Oc1ccc(CN2CCC(n3nccc3NC(=O)C3CC3)CC2)cc1	-68.4
O=[N+]([O-])c1ncccc1OCc1ccc(-c2ccccc2)cc1	23.5
CNCC(O)COc1ccccc1 (stereo not shown)	-2.51
C=C(C)CNC(=S)N/N=C/c1ccccc1OCC(=O)O	15.1
O=C(CCc1ccc(S(=O)(=O)NCCc2ccccc2)cc1)Nc1ccc2c(c1)OCCO2	13.3
CCC1Oc2ccc(C)cc2N(CC(=O)N2CCOCC2)C1=O (stereo not shown)	10.7
O=c1[nH]c(=O)n(-c2ccccc2Cl)c(O)c1C=NCCN1CCCCC1	3.62
CC1(C)CC2(CCO1)OC(=O)CC2C(=O)Nc1ccc(Cl)cc1[N+](=O)[O-] (stereo not shown)	3.56

SMILES	hERG current change (%, negative = inhibition) at 1uM [%]
COc1cc(/C=C2/CCC/C(=C\c3cc(O)c(OC)c(Cl)c3)C2=O)cc(Cl)c1O	6.07
N#CC(C#N)=c1ccc2c(c1)N1C3=C(CCCC3)CC3CCCCC31N=2 (stereo not shown)	11.2
Cc1ccc(Cl)cc1N1CCN(C(=O)C(=O)N2CCCCC2)CC1	12.4
O=C(Nc1ccc(F)cc1)c1cccc(N2C(=O)C3C4CCC(C4)C3C2=O)c1 (stereo not shown)	6.35
CCOC(=O)C1=NN(c2ccc(Cl)cc2)C(c2ccccc2)CC1=O (stereo not shown)	8.55
CCSCCNC(=O)c1cc(-n2cnnc2)ccc1Cl	3.2
COC(=O)c1ccc(C2=NOC(C)(c3sc(-c4ccc(Cl)cc4)nc3C)C2)cc1 (stereo not shown)	8.01
Cc1cc(NC(=O)CSCC(=O)Nc2ccc(C)c(C)c2)no1	-0.301
CC[N+]1(CC)CC2CCC(C)(C1)C2(C)C.[I-] (stereo not shown)	4.92
CCC(C)NC(=O)CN(c1cc(Cl)ccc1OC)S(C)(=O)=O (stereo not shown)	-1.78
CN(Cc1ccccc1)C(=O)c1ccccc1C(=O)O	15.8
OC(COCc1ccccc1)Cn1cnc2ccccc21 (stereo not shown)	-1.53
C/C(=N/NC(=O)NC12CC3CC(CC(C3)C1)C2)c1ccccc1	8.51
O=C(c1ccccc1-c1ccccc1)N1CCCC1	10.3
CCOC(=O)c1cnc(-n2nc(C)cc2C)nc1NCc1ccccc1	2.73
Cc1nn(-c2ccccc2)c(C)c1NC(=O)COc1ccc(Br)cc1Cl	3.62
O=[N+]([O-])c1ccc(Cl)cc1N1CCCCC1	17.6
C=CCOc1ccc2c(CC)cc(=O)oc2c1C	15
O=C(O)CNC(=O)c1ccc(S(=O)(=O)N2CCOCC2)cc1	-3.84
Nc1nnnn1/N=C/c1cc(Cl)cc(Cl)c1OCc1ccc(Cl)cc1Cl	0.564
CSc1nc2ccccc2cc1/C=C(\C#N)c1ccccc1	9.25
COc1cccc(/C=N/NC(=O)c2csc(-n3nc(C)cc3C(F)(F)F)n2)c1	8.96
